At least one compound was matched to its structure with a doubt left. Numbered stars: 1 amine (or outer) side, 2 acyl side, 3 side chain; on linkers, the order of the positions; unused ones are H or OH. Square brackets hold non-standard residues; d marks the D form. Side chains are listed from the residue outwards. Peptide text beside a SMILES is read from it. * marks the point of attachment. C20 diacid = O=C(O)CCCCCCCCCCCCCCCCCCC(=O)*; C18 diacid = O=C(O)CCCCCCCCCCCCCCCCC(=O)*; C16 diacid = O=C(O)CCCCCCCCCCCCCCC(=O)*; γGlu = O=C(O)[C@H](CCC(=O)[*:2])N[*:1]; Orn = NCCC[C@H](N)C(=O)O; AEEA = NCCOCCOCC(=O)O
Tests used:
[1] = Assay (IV) Body weight loss in diet induced obese rats; assay type: in vivo, Sprague Dawley rats; conditions: sc once daily, Example 3 at 30 and 300 nmol/kg until 5th dosing day
[2] = ThT fibrillation assay (lag time and recovery); assay type: physicochemical; conditions: for ThT assay [Lag time] / ThT assay [Recovery]: Table 2
Procedure: This has traditionally been measured by visual inspection of the sample. However, that kind of measurement is very subjective and depending on the observer. Therefore, the application of a small molecule indicator probe is much more advantageous. […] Enzymol.
The constant t0 is the time needed to reach 50% of maximum fluorescence. The two important parameters describing fibril formation are the lag-time calculated by t0−2τ and the apparent rate constant kapp 1/τ.
Samples were prepared freshly before each assay. […] The pH of the sample was adjusted to the desired value using appropriate amounts of concentrated NaOH and HCl. Thioflavin T was added to the samples from a stock solution in H2O to a final concentration of 1 μM.
The plate was sealed with Scotch Pad (Qiagen).
Each run was initiated by incubating the plate at the assay temperature for 10 min. The plate was measured every 20 minutes for a desired period of time. Between each measurement, the plate was shaken and heated as described.
The supernatant was filtered through a 0.22 μm filter and an aliquot was transferred to a HPLC vial.
The measurement points were saved in Microsoft Excel format for further processing and curve drawing and fitting was performed using GraphPad Prism. […] The data set may be fitted to Eq. (1).

| SMILES | body weight [1] | ThT assay [Lag time] [2] [h] | ThT assay [Recovery] [2] [%] | recovery after ThT fibrillation assay ([2]; formulations, 37° C., 45 hours, shaking 960 rpm) |
| --- | --- | --- | --- | --- |
| CC(C)C[C@H](NC(=O)[C@H](Cc1ccc(O)cc1)NC(=O)[C@H](CCCCN)NC(=O)[C@H](CO)NC(=O)[C@H](Cc1ccc(O)cc1)NC(=O)[C@H](CC(=O)O)NC(=O)[C@H](CO)NC(=O)[C@@H](NC(=O)[C@H](Cc1ccccc1)NC(=O)[C@@H](NC(=O)CNC(=O)[C@H](CCC(N)=O)NC(=O)[C@H](CO)NC(=O)[C@@H](N)Cc1c[nH]cn1)[C@@H](C)O)[C@@H](C)O)C(=O)N[C@@H](CC(=O)O)C(=O)N[C@@H](CO)C(=O)N[C@@H](CCCCN)C(=O)N[C@@H](CCCCN)C(=O)N[C@@H](C)C(=O)N[C@@H](CCC(N)=O)C(=O)N[C@@H](CCC(=O)O)C(=O)N[C@@H](Cc1ccccc1)C(=O)N[C@H](C(=O)N[C@@H](CCCCNC(=O)COCCOCCNC(=O)COCCOCCNC(=O)CC[C@H](NC(=O)CCCCCCCCCCCCCCCCC(=O)O)C(=O)O)C(=O)N[C@@H](Cc1c[nH]c2ccccc12)C(=O)N[C@@H](CC(C)C)C(=O)N[C@@H](CC(C)C)C(=O)N[C@@H](CC(N)=O)C(=O)N[C@H](C(=O)O)[C@@H](C)O)C(C)C [Example 3] (H-HSQGTFTSDYSKYLDSKKAQEFVK([AEEA-AEEA-γGlu-C18 diacid])WLLNT-OH) | dramatic weight loss | 27 | 77 | full recovery |
| CC(C)C[C@H](NC(=O)[C@H](Cc1ccc(O)cc1)NC(=O)[C@H](CCCCN)NC(=O)[C@H](CO)NC(=O)[C@H](Cc1ccc(O)cc1)NC(=O)[C@H](CC(=O)O)NC(=O)[C@H](CO)NC(=O)[C@@H](NC(=O)[C@H](Cc1ccccc1)NC(=O)[C@@H](NC(=O)CNC(=O)[C@H](CCC(N)=O)NC(=O)[C@H](CO)NC(=O)[C@@H](N)Cc1c[nH]cn1)[C@@H](C)O)[C@@H](C)O)C(=O)N[C@@H](CC(=O)O)C(=O)N[C@@H](CO)C(=O)N[C@@H](CCCCN)C(=O)N[C@@H](CCCCN)C(=O)N[C@@H](C)C(=O)N[C@@H](CCC(N)=O)C(=O)N[C@@H](CCC(=O)O)C(=O)N[C@@H](Cc1ccccc1)C(=O)N[C@H](C(=O)N[C@@H](CCCNC(=O)COCCOCCNC(=O)COCCOCCNC(=O)CC[C@H](NC(=O)CCCCCCCCCCCCCCCCC(=O)O)C(=O)O)C(=O)N[C@@H](Cc1c[nH]c2ccccc12)C(=O)N[C@@H](CC(C)C)C(=O)N[C@@H](CC(C)C)C(=O)N[C@@H](CO)C(=O)N[C@H](C(=O)O)[C@@H](C)O)C(C)C [Example 73, N^ε24-[2-[2-[2-[[2-[2-[2-[[(4S)-4-carboxy-4-(17-carboxyheptadecanoylamino)butanoyl]amino]ethoxy]ethoxy]acetyl]amino]ethoxy]ethoxy]acetyl]-[Lys^17,Lys^18,Glu^21,Orn^24,Leu^27,Ser^28]-Glucagon] (H-HSQGTFTSDYSKYLDSKKAQEFV[Orn]([AEEA-AEEA-γGlu-C18 diacid])WLLST-OH) | – | – | 100 | – |
| CC(C)C[C@H](NC(=O)[C@H](Cc1ccc(O)cc1)NC(=O)[C@H](CCCCN)NC(=O)[C@H](CO)NC(=O)[C@H](Cc1ccc(O)cc1)NC(=O)[C@H](CC(=O)O)NC(=O)[C@H](CO)NC(=O)[C@@H](NC(=O)[C@H](Cc1ccccc1)NC(=O)[C@@H](NC(=O)CNC(=O)[C@H](CCC(N)=O)NC(=O)[C@H](CO)NC(=O)[C@@H](N)Cc1c[nH]cn1)[C@@H](C)O)[C@@H](C)O)C(=O)N[C@@H](CC(=O)O)C(=O)N[C@@H](CO)C(=O)N[C@@H](CCCCN)C(=O)N[C@@H](CCCCN)C(=O)N[C@@H](C)C(=O)N[C@@H](CCC(N)=O)C(=O)N[C@@H](CCC(=O)O)C(=O)N[C@@H](Cc1ccccc1)C(=O)N[C@H](C(=O)N[C@@H](CCCCNC(=O)COCCOCCNC(=O)CC[C@H](NC(=O)CCCCCCCCCCCCCCCCC(=O)O)C(=O)O)C(=O)N[C@@H](Cc1c[nH]c2ccccc12)C(=O)N[C@@H](CC(C)C)C(=O)N[C@@H](CC(C)C)C(=O)N[C@@H](CO)C(=O)N[C@H](C(=O)O)[C@@H](C)O)C(C)C [Example 71, N^ε24-[2-[2-[2-[[(4S)-4-carboxy-4-(17-carboxyheptadecanoylamino)butanoyl]amino]ethoxy]ethoxy]acetyl]-[Lys^17,Lys^18,Glu^21,Lys^24,Leu^27,Ser^28]-Glucagon] (H-HSQGTFTSDYSKYLDSKKAQEFVK([AEEA-γGlu-C18 diacid])WLLST-OH) | – | – | 100 | – |
| CC(C)C[C@H](NC(=O)[C@H](Cc1ccc(O)cc1)NC(=O)[C@H](CCCCN)NC(=O)[C@H](CO)NC(=O)[C@H](Cc1ccc(O)cc1)NC(=O)[C@H](CC(=O)O)NC(=O)[C@H](CO)NC(=O)[C@@H](NC(=O)[C@H](Cc1ccccc1)NC(=O)[C@@H](NC(=O)CNC(=O)[C@H](CCC(N)=O)NC(=O)[C@H](CO)NC(=O)[C@@H](N)Cc1c[nH]cn1)[C@@H](C)O)[C@@H](C)O)C(=O)N[C@@H](CC(=O)O)C(=O)N[C@@H](CO)C(=O)N[C@@H](CCCCN)C(=O)N[C@@H](CCCCN)C(=O)N[C@@H](C)C(=O)N[C@@H](CCC(N)=O)C(=O)N[C@@H](CCC(=O)O)C(=O)N[C@@H](Cc1ccccc1)C(=O)N[C@H](C(=O)N[C@@H](CCCCNC(=O)COCCOCCNC(=O)COCCOCCNC(=O)CC[C@H](NC(=O)CCCCCCCCCCCCCCCCCCC(=O)O)C(=O)O)C(=O)N[C@@H](Cc1c[nH]c2ccccc12)C(=O)N[C@@H](CC(C)C)C(=O)N[C@@H](CC(C)C)C(=O)N[C@@H](CC(N)=O)C(=O)N[C@H](C(=O)O)[C@@H](C)O)C(C)C [Example 66, N^ε24-[2-[2-[2-[[2-[2-[2-[[(4S)-4-carboxy-4-(19-carboxynonadecanoylamino)butanoyl]amino]ethoxy]ethoxy]acetyl]amino]ethoxy]ethoxy]acetyl]-[Lys^17,Lys^18,Glu^21,Lys^24,Leu^27]-Glucagon] (H-HSQGTFTSDYSKYLDSKKAQEFVK([AEEA-AEEA-γGlu-C20 diacid])WLLNT-OH) | – | 17 | 48 | – |
| CC(C)C[C@H](NC(=O)[C@H](Cc1ccc(O)cc1)NC(=O)[C@H](CCCCN)NC(=O)[C@H](CO)NC(=O)[C@H](Cc1ccc(O)cc1)NC(=O)[C@H](CC(=O)O)NC(=O)[C@H](CO)NC(=O)[C@@H](NC(=O)[C@H](Cc1ccccc1)NC(=O)[C@@H](NC(=O)CNC(=O)[C@H](CCC(N)=O)NC(=O)[C@H](CO)NC(=O)[C@@H](N)Cc1c[nH]cn1)[C@@H](C)O)[C@@H](C)O)C(=O)N[C@@H](CC(=O)O)C(=O)N[C@@H](CO)C(=O)N[C@@H](CCCCN)C(=O)N[C@@H](CCCCN)C(=O)N[C@@H](C)C(=O)N[C@@H](CCC(N)=O)C(=O)N[C@@H](CCC(=O)O)C(=O)N[C@@H](Cc1ccccc1)C(=O)N[C@H](C(=O)N[C@@H](CCCCNC(=O)COCCOCCNC(=O)COCCOCCNC(=O)CC[C@H](NC(=O)CCCCCCCCCCCCCCC(=O)O)C(=O)O)C(=O)N[C@@H](Cc1c[nH]c2ccccc12)C(=O)N[C@@H](CC(C)C)C(=O)N[C@@H](CC(C)C)C(=O)N[C@@H](CO)C(=O)N[C@H](C(=O)O)[C@@H](C)O)C(C)C [Example 69, N^ε24-[2-[2-[2-[[2-[2-[2-[[(4S)-4-carboxy-4-(15-carboxypentadecanoylamino)butanoyl]amino]ethoxy]ethoxy]acetyl]amino]ethoxy]ethoxy]acetyl]-[Lys^17,Lys^18,Glu^21,Lys^24,Leu^27,Ser^28]-Glucagon] (H-HSQGTFTSDYSKYLDSKKAQEFVK([AEEA-AEEA-γGlu-C16 diacid])WLLST-OH) | – | – | 100 | – |
